The supplement of paper PMC10126150
Values marked as one replicate rest on one cluster of the flow cell; about a third of the high ones do not repeat.

Tested on: ATP
Experiment: switch fluorescence ratio, 500 uM ATP over buffer (Cy3 cluster intensity, sum of 5 cycles each) (fold (ratio)); higher = stronger signal-on switching upon ATP binding; sequences stand for … in TCGTCGGCAGCGTCAGATGTGTATAAGAGACAGTTTTTTTTTTTTTTTTTTTTTTTTT…TC
Conditions: aptamer strand: ATP DNA aptamer (quencher-CACCTGGGGGAGTATTGCGGAGGAAGG + anchor), 100 nM annealed; ATP concentration: 500 uM; one replicate
Outline: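 Values give the fluorescence ratio for each switch-domain sequence, averaged from per-cluster ratios of summed target-cycle to summed buffer-cycle Cy3 intensity. The Cy3-labelled switching-strand clusters sat on a modified Illumina MiSeq flow-cell, were annealed to 100 nM quencher-labelled ATP aptamer, and were imaged in selection buffer, then after 15 min with 500 uM ATP at 22 °C. Five cycles ran with NaOH stripping and re-annealing between them, and clusters outside 100-1000 RFU were excluded.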
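Note: ATP exposure 15 min at 22 °C before imaging.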

| Sequence | switch fluorescence ratio |
| --- | --- |
| GTGTCATGAA | 0.961 |
| AGTTTAAGAG | 0.987 |
| GATTTAACGT | 0.986 |
| GGCGCTATTT | 0.956 |
| TAAGATAAGC | 1.08 |
| CTTGGCCTCC | 1.14 |
| CGCCCTGTTT | 0.972 |
| TGTTAAA | 1.06 |
| TTATGCAATT | 1.18 |
| CCGGTATCGA | 1.06 |
| GAAGAGTATG | 0.938 |
| GAAAGCCCG | 1.02 |
| CCGAGATGT | 1.1 |
| GACAGGGCTA | 1.08 |
| CTGGAAGCAG | 1.35 |
| AGTCGACATC | 0.987 |
| TATGGCTATA | 0.992 |
| CTCAGTTGA | 0.97 |
| TGACCGAGTT | 0.986 |
| AGCGAACACC | 1.16 |
| GGGCGTCCGA | 1.01 |
| TGCTTACGGC | 1 |
| GTCCAATCGG | 0.965 |

| Sequence | switch fluorescence ratio |
| --- | --- |
| TTCTACCTGG | 0.98 |
| GGCGATGAGA | 1.05 |
| TAATCTTGAC | 1.03 |
| TTCTGGATGA | 1.02 |
| ACGTGTACGT | 1.02 |
| TCCTAGTAAT | 1.57 |
| TTCTCCTGGA | 0.997 |
| TTCCCGCTTT | 1.34 |
| TGGATTCCTT | 0.989 |
| ATATCCTGGT | 0.971 |
| GAATCGGGC | 1.04 |
| AGAACTAGCC | 1 |
| CTAACTCCAG | 1.07 |
| AACTGCACGC | 1.4 |
| GCACGACCTT | 1.23 |
| GTTGTAGGAT | 1.04 |
| GGTGGCTGAG | 1.01 |
| CAATGTTAT | 0.997 |
| AATGGGATAA | 1.05 |
| TTCTAACCAT | 1.02 |
| TTTCCTAA | 0.986 |
| TAGAGACTC | 1.02 |
| GATGAGAGTT | 1.01 |

| Sequence | switch fluorescence ratio |
| --- | --- |
| CACCGTTGTT | 1.03 |
| CAAACGCCCA | 1.25 |
| GGTGAAATGA | 1.03 |
| TACGATATA | 1.1 |
| CGCGTGAATG | 0.987 |
| TGAAGTGGTT | 1.01 |
| AATTCTGTCA | 1.01 |
| CACTCACGAA | 1.29 |
| ACCGTGGAAA | 0.969 |
| ACGCAACTTA | 1.4 |
| AGCGCTCGTC | 1.02 |
| CAGGAGCGTC | 1.48 |
| GGACCACGCC | 1.08 |
| CGGTCGGCGC | 0.996 |
| AGGGCAGCCT | 1 |
| TTTTGACTCT | 0.983 |
| GATAACGTCA | 1.03 |
| ACAGTCAGGG | 1.12 |
| GATGTGCGCT | 1.02 |
| GTTGTTCGTA | 1.05 |
| AGCAAACGGA | 1.89 |
| AACCTAACAG | 1.06 |
| CTGGTCGTTC | 0.988 |

| Sequence | switch fluorescence ratio |
| --- | --- |
| TTCGCGGCGC | 0.995 |
| TAAAAGAAA | 0.999 |
| ACTGTGGGAA | 1.03 |
| CTAGTTCATG | 0.995 |
| CACGATTCAA | 1.02 |
| AGGCCATCCA | 0.983 |
| ACCAAGCAAC | 2.01 |
| CCTGCGCCAG | 2.08 |
| CTGCGGTACT | 4.04 |
| GCTAGGGTG | 1.02 |
| GAGGTACGTT | 0.99 |
| TACGGAA | 1.13 |
| GCTGTGGCTG | 0.979 |
| TAGGTTATGT | 0.993 |
| GTAAAAGCCG | 0.993 |
| GTGGTCGGAA | 0.999 |
| GTAGAGCGCC | 0.99 |
| AGCCTGTACT | 1.07 |
| GGACATTCTT | 0.998 |
| AACGGCTCTG | 0.975 |
| TTGCGAACTC | 1.35 |
| AGTAACTTTG | 1.06 |
| AGGGCGGAGA | 1.02 |

| Sequence | switch fluorescence ratio |
| --- | --- |
| TGCATAAGGC | 0.991 |
| GGTGCATAG | 1.05 |
| CGCGCTCATA | 1.1 |
| GGATGTCAAA | 0.975 |
| TGCACGGCGT | 0.985 |
| TTTCGACATT | 1.1 |
| ACGCGGTGGT | 0.944 |
| CCCACCCTAG | 1.05 |
| GGCTACGTTG | 1.01 |
| AAGGCAAA | 1.02 |
| CACGAAAGGG | 1.08 |
| TAAGGGAAGA | 1.05 |
| TCTTATCGGA | 1.04 |
| ACTGCTACCG | 1.2 |
| GTACTTCTTG | 1.03 |
| TTAACGGCAT | 1.07 |
| ATGCCAGCGA | 1.04 |
| GCGATGGCTA | 1 |
| TTCAGTCAGG | 0.996 |
| CGGATATTAG | 0.983 |
| AATTGGGCCC | 1.01 |
| ACGGCGCCCG | 0.951 |
| ATATCTATCA | 0.959 |

| Sequence | switch fluorescence ratio |
| --- | --- |
| GGGCCGATGG | 1.05 |
| CAGTGGTCAA | 1.01 |
| ACAGCGTACG | 1.02 |
| GCTTCTGTGC | 1 |
| ATCAGGCCAA | 1.1 |
| GCACTGTTGA | 0.971 |
| TCTATAGGTC | 1.04 |
| GTGGCTAAAC | 1.03 |
| CATGTTGGCG | 0.997 |
| CACATCACTG | 1.48 |
| CGCTTGTGGC | 1.02 |
| TAAAACCGCG | 1.04 |
| ATCCACAGCT | 1.1 |
| TCGATTTTAC | 1.11 |
| CGATGGAGTC | 0.974 |
| TCTGAGCGGG | 0.98 |
| GGTGACGGCG | 0.999 |
| TAGGCATCTT | 0.987 |
| TGCTAAGGG | 1.01 |
| GGCGTAGTT | 0.977 |
| CCCCGTGGGC | 1.55 |
| GGCGGTTCAG | 0.938 |
| TATCGTGCTC | 0.98 |

| Sequence | switch fluorescence ratio |
| --- | --- |
| TGACAGTATT | 1.06 |
| CTTCGCCATT | 2.01 |
| TCTTACAGGC | 0.977 |
| GGAAATCGGC | 1.12 |
| TTTACGAGTC | 1 |
| GAGGTCACAC | 1.02 |
| CGATGTCGGT | 0.975 |
| ATGTAGCT | 1.01 |
| TGCCTAGCAC | 1.03 |
| ACCGGACTA | 1.28 |
| GTACATTAAC | 1.09 |
| TGTGGTCTTC | 0.994 |
| TTAAGCAGGG | 0.98 |
| TAGAACTTG | 0.977 |
| CAATCGACCC | 1.93 |
| TCTGGGGACG | 0.997 |
| GTCACACTAC | 1.41 |
| TTATCTAATA | 1.01 |
| AGATGAAGTA | 1.02 |
| CGGCGCTGTC | 0.97 |
